Our source for the MIC values is patent publication US5843437A, “A82846 antibiotics” (Eli Lilly and Company, priority 1995, dated 1998).

Converted amounts (≈) assume the structure as drawn.

This test relates to Staphylococcus aureus S13E. In kind it is cell-based. As to conditions: S. aureus S13E; agar dilution. Here is the method: The MIC's in Tables VII and VIII were determined by standard agar-dilution assays.
As a reminder, the MIC is the lowest concentration that inhibits growth of the organism. High values mean a need for much substance, low ones inhibition by little substance. `CN[C@H](CC(C)C)C(=O)N[C@H]1C(=O)N[C@@H](CC(N)=O)C(=O)N[C@H]2C(=O)N[C@H]3C(=O)N[C@H](C(=O)N[C@@H](C(=O)O)c4cc(O)cc(O)c4-c4cc3ccc4O)[C@H](O[C@@H]3C[C@@](C)(N)[C@H](O)[C@@H](C)O3)c3ccc(cc3)Oc3cc2cc(c3O[C@H]2O[C@@H](CO)[C@H](O)[C@@H](O)[C@@H]2O[C@H]2C[C@](C)(N)[C@@H](O)[C@H](C)O2)Oc2ccc(cc2Cl)[C@H]1O` [A82846A] showed a minimum inhibitory concentration (MIC) of 0.125 µg/mL (≈ 0.0802 µM).

`CN[C@H](CC(C)C)C(=O)N[C@H]1C(=O)N[C@@H](CC(N)=O)C(=O)N[C@H]2C(=O)N[C@H]3C(=O)N[C@H](C(=O)N[C@H](C(=O)O)c4cc(O)cc(O)c4-c4cc3ccc4O)[C@H](O[C@H]3C[C@](C)(N)[C@@H](O)[C@H](C)O3)c3ccc(c(Cl)c3)Oc3cc2cc(c3O[C@@H]2O[C@H](CO)[C@@H](O)[C@H](O)[C@H]2O[C@H]2C[C@](C)(N)[C@@H](O)[C@H](C)O2)Oc2ccc(cc2Cl)[C@H]1O` [A82846B] displayed an MIC of 0.125 µg/mL (≈ 0.0785 µM).

The compound `CN[C@@H](CC(C)C)C(=O)N[C@H]1C(=O)N[C@H](CC(N)=O)C(=O)N[C@H]2C(=O)N[C@H]3C(=O)N[C@@H](C(=O)NC(C(=O)O)c4cc(O)cc(O)c4-c4cc3ccc4O)[C@@H](O[C@H]3C[C@](C)(N)[C@H](O)[C@@H](C)O3)c3ccc(cc3)Oc3cc2cc(c3O[C@H]2O[C@@H](CO)[C@@H](O)[C@H](O)[C@@H]2O[C@H]2C[C@](C)(N)[C@H](O)[C@@H](C)O2)Oc2ccc(cc2)[C@@H]1O` (stereo partly drawn) [A82846C] registered a minimum inhibitory concentration (MIC) of 1 µg/mL (≈ 0.656 µM).
